Two molecules from patent US20260232769A1 (WUXI BIOLOGICS IRELAND, published 2026) can be followed below.

Experiment in all cases: cell-based or functional assay
Assay [1] addresses T1, IL-2Rβ/γc complex (intermediate affinity receptor) on primary human CD8+ T cells (human, UniProt P14784 27-551; P31785 23-369).
T1 sequence (looked up) 1: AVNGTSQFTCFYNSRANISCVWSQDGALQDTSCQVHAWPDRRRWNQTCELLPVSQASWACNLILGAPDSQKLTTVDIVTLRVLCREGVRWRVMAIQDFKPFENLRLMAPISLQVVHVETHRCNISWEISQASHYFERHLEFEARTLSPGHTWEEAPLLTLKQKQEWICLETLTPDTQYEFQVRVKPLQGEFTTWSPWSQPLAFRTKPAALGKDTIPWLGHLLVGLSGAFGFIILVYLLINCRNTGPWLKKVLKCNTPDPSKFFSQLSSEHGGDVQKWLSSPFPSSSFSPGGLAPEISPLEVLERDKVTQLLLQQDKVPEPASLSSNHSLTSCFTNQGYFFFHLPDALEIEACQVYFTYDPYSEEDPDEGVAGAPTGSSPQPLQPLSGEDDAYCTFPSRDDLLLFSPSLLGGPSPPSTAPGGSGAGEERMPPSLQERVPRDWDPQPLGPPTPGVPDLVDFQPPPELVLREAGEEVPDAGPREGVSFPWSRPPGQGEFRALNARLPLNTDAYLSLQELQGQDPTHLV
T1 sequence (looked up) 2: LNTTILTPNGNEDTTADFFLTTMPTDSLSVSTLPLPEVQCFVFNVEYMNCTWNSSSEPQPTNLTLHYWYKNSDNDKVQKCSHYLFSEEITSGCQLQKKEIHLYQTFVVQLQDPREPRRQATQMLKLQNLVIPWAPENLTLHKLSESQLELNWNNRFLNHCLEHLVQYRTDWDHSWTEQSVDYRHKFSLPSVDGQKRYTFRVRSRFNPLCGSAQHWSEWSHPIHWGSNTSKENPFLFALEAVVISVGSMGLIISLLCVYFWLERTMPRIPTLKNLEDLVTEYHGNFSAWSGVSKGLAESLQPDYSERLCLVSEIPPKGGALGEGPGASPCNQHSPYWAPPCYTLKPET

For assay [2], the target named is T2, IL-2Rα/β/γc complex (high affinity receptor) on human activated CD8+ T cells (human, UniProt P01589 22-272; P14784 27-551; P31785 23-369).
T2 sequence (looked up) 1: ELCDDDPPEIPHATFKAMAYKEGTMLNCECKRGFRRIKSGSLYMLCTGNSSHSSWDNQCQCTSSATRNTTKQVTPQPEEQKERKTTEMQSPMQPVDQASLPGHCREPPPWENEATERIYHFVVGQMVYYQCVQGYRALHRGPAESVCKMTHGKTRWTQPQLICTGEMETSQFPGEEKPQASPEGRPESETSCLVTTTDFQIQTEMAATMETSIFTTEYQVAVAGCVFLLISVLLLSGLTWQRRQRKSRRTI
T2 sequence (looked up) 2: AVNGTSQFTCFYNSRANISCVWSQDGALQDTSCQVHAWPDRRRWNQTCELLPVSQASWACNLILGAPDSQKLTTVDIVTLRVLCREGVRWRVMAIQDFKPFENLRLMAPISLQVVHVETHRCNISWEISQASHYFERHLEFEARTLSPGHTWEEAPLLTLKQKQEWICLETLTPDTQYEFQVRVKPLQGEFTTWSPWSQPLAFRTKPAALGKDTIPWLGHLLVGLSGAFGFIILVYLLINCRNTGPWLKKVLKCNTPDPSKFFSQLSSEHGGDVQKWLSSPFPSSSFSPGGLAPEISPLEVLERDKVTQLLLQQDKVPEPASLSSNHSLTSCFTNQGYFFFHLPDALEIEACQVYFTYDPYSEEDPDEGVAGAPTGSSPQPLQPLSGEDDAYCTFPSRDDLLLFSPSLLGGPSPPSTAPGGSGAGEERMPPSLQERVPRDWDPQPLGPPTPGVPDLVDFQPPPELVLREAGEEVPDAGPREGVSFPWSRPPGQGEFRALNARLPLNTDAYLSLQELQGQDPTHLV
T2 sequence (looked up) 3: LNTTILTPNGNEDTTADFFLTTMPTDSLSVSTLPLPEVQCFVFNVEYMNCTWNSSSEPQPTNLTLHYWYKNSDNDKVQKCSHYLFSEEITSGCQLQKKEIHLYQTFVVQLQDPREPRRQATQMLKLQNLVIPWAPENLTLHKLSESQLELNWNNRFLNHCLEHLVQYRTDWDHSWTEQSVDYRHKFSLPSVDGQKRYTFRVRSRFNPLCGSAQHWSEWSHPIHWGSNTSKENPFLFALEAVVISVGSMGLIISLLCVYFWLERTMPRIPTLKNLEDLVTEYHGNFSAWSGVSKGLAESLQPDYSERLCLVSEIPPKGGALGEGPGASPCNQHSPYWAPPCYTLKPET

Assay [3] concerns the target T3, IL-2Rα (CD25) on human activated CD8+ T cells (human, UniProt P01589 22-272).
T3 sequence (looked up): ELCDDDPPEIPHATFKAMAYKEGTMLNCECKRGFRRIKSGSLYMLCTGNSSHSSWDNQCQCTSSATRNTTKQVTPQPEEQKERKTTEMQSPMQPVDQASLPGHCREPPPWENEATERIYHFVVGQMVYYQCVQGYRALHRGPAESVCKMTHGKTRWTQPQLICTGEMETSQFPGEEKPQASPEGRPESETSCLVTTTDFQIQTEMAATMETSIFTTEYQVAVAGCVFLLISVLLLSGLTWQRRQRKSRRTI

Assay [4] addresses T1, IL-2Rβ/γc complex (intermediate …). This is another data set of the same source.
The target in assay [5] is T2, IL-2Rα/β/γc complex (high affinity …). The source holds these as a separate data set.
Assay [6] concerns the target T1, IL-2Rβ/γc complex (intermediate …). The source holds these as a separate data set.
Assay [7] has as its target T2, IL-2Rα/β/γc complex (high affinity …). This is another data set of the same source.

Like-named read-outs stand apart in the source and are kept apart here.

B1: W3XX115-T2.Z20-4.uIgG4V322 (Fc fusion)
chain: APTSSSTKKTQLQLEHLLLDLQMILNGINNYKNPKLTRMLTFKFYMPKKATELKHLQCLEEELKPLEEVLNLAQSKNFHLRPRDLISNINVIVLELKGSETTFMCEYADRTATIVEFLNRWYTFCQSIL[letters of human IgG4 Fc with S228P F234A L235A (EU numbers) left out]
With B1, in assay [1], the “Potency reduction, pSTAT5, human primary CD8+ T” value was 4.5 fold and the “pSTAT5 EC50, human primary CD8+ T” value worked out at 511 nM. Moreover, in assay [2], the “Potency reduction, pSTAT5, human activated CD8+ T” value stood at 0.9 fold and the “pSTAT5 EC50, human activated CD8+ T” value was 15 pM. The “potency ratios of activated CD8+T/primary CD8+T (pSTAT5)” value in assay [3] worked out at 10000.

B2: W3XX115-T2U0.E44-1.uIgG4V322 (Fc fusion)
chain: [letters of about 150 residues left out]ESKYGPPCPPCPAPEAAGGPSVFLFPPKPKDTLMISRTPEVTCVVVDVSQEDPEVQFNWYVDGVEVHNAKTKPREEQFNSTYRVVSVLTVLHQDWLNGKEYKCKVSNKGLPSSIEKTISKAKGQPREPQVYTLPPCQEEMTKNQVSLWCLVKGFYPSDIAVEWESNGQPENNYKTTPPVLDSDGSFFLYSRLTVDKSRWQEGNVFSCSVMHEALHNHYTQKSLSLSLG
heavy: EIQLQQSGPELVKPGASVKVSCKASGYSFTDYNMYWVKQSHGESLEWIGYIDPYNGGTRYNQKFKGKATLTVDKSSSTAFMHLNSLTSEDSAVYYCARNGHWDGAWFAYWGQGTLVTVSAASTKGPSVFPLAPCSRSTSESTAALGCLVKDYFPEPVTVSWNSGALTSGVHTFPAVLQSSGLYSLSSVVTVPSSSLGTKTYTCNVDHKPSNTKVDKRVESKYGPPCPPCPAPEAAGGPSVFLFPPKPKDTLMISRTPEVTCVVVDVSQEDPEVQFNWYVDGVEVHNAKTKPREEQFNSTYRVVSVLTVLHQDWLNGKEYKCKVSNKGLPSSIEKTISKAKGQPREPQVCTLPPSQEEMTKNQVSLSCAVKGFYPSDIAVEWESNGQPENNYKTTPPVLDSDGSFFLVSRLTVDKSRWQEGNVFSCSVMHEALHNHYTQKSLSLSLG
light: DIQMNQSPSSLSASLGDTITITCHASQNINVWLSWYQQKPGNIPKLLIYKASNLHTGVPSRFSGSRSGTGFTLTISSLQPEDIATYYCHQGQSYPFTFGSGTKLEIKRTVAAPSVFIFPPSDEQLKSGTASVVCLLNNFYPREAKVQWKVDNALQSGNSQESVTEQDSKDSTYSLSSTLTLSKADYEKHKVYACEVTHQGLSSPVTKSFNRGEC
As to B2, the “Potency reduction, pSTAT5, human primary CD8+ T” value in assay [4], in assay [1] and in assay [6] was 1 fold in each case. Further, the “pSTAT5 EC50, human primary CD8+ T” value in assay [4] is 7.65 nM; in assay [1], 113 nM; in assay [6], 14.2 nM. For the same molecule, the “Potency reduction, pSTAT5, human activated CD8+ T” value in assay [2], in assay [5] and in assay [7] was 1 fold each time. Further, the “pSTAT5 EC50, human activated CD8+ T” value is 17 pM in assay [2] and 27 pM in assay [7].
